Among the data in US11420968B2 (priority 2018, dated 2022) are IC50 values, retold here.

One experiment deals with RS4;11 cells. The experiment is described as follows: cells. The note with it: Homo sapiens.
In another experiment the test system is Molt-4 cells. The experiment is described as follows: cells. The note with it: Homo sapiens.
The mark [1] stands for this setting: RS4-11, 48 h, read-out: Cellular activity (IC50, nM) RS4;11.
The mark [2] stands for this setting: MOLT-4, read-out: Cellular activity (IC50, nM) Molt-4.
Where [3] appears, read: RS4-11, 48 h, read-out: Cellular activity (IC50, nM) RS4, 11.

Structures are written as SMILES. Like-named read-outs stand apart in the source and are kept apart here.

Usually IC50 stands for the concentration that gives 50% inhibition. As for `CN(C)C1CC(c2ccccc2C2CC2)N(c2ccc(-c3ccc(C(=O)NS(=O)(=O)c4ccc(NCC5CCOCC5)c([N+](=O)[O-])c4)c(Oc4cnc5[nH]ccc5c4)c3)cc2)C1` (centres unmarked) [Example A151, 3-((1H-pyrrolo[2,3-b]pyridin-5-yl)oxy)-4′-(2-(2-cyclopropylphenyl)-4-(dimethylamino)pyrrolidin-1-yl)-N-((3-nitro-4-(((tetrahydro-2H-pyran-4-yl)methyl)amino)phenyl)sulfonyl)-[1,1′-biphenyl]-4-carboxamide], the IC50 with RS4;11 cells (setting [1]) was 26 nM; in the experiment on Molt-4 cells (setting [2]), more than 10000 nM.

Consider `O=C(NS(=O)(=O)c1ccc(NCC2CCOCC2)c([N+](=O)[O-])c1)c1ccc(-c2ccc(N3CCCC3c3ccccc3C3CCOCC3)cc2)cc1Oc1cnc2[nH]ccc2c1` (centres unmarked) [Example A90, 3-((1H-pyrrolo[2,3-b]pyridin-5-yl)oxy)-N-((3-nitro-4-(((tetrahydro-2H-pyran-4-yl)methyl)amino)phenyl)sulfonyl)-4′-(2-(2-(tetrahydro-2H-pyran-4-yl)phenyl)pyrrolidin-1-yl)-[1,1′-biphenyl]-4-carboxamide], for which the values for the IC50 with RS4;11 cells (setting [1]) and with Molt-4 cells (setting [2]) were 71 nM and 5600 nM, respectively.

Consider `CN1CCC(Cc2ccccc2[C@H]2CCCN2c2ccc(-c3ccc(C(=O)NS(=O)(=O)c4ccc(NCC5CCOCC5)c([N+](=O)[O-])c4)c(Oc4cnc5[nH]ccc5c4)c3)cc2)CC1` [Example A112, (R)-3-((1H-pyrrolo[2,3-b]pyridin-5-yl)oxy)-4′-(2-(2-((1-methylpiperidin-4-yl)methyl)phenyl)pyrrolidin-1-yl)-N-((3-nitro-4-(((tetrahydro-2H-pyran-4-yl)methyl)amino)phenyl)sulfonyl)-[1,1′-biphenyl]-4-carboxamide], for which the IC50 in the experiment on RS4;11 cells (setting [1]) is 3.4 nM; with Molt-4 cells (setting [2]) it was 1210 nM.

Turning to `Cc1ccccc1C1CCCN1C1CCC(c2ccc(C(=O)NS(=O)(=O)c3ccc(NCC4CCOCC4)c([N+](=O)[O-])c3)c(Oc3cnc4[nH]ccc4c3)c2)CC1` (stereo not drawn) [Example D96, trans- or cis-2-((1H-pyrrolo[2,3-b]pyridin-5-yl)oxy)-N-((3-nitro-4-(((tetrahydro-2H-pyran-4-yl)methyl)amino)phenyl)sulfonyl)-4-(4-(2-(o-tolyl)pyrrolidin-1-yl)cyclohexyl)benzamide], the IC50 with RS4;11 cells (setting [3]) is 43 nM; in the experiment on Molt-4 cells (setting [2]), more than 10000 nM.

In the case of `C=C1CC(c2ccccc2C2CC2)N(C2CC=C(c3ccc(C(=O)NS(=O)(=O)c4ccc(NCC5CCOCC5)c([N+](=O)[O-])c4)c(Oc4cnc5[nH]ccc5c4)c3)CC2)C1` (centres unmarked) [Example C180, 3-((1H-pyrrolo[2,3-b]pyridin-5-yl)oxy)-4′-(2-(2-cyclopropylphenyl)-4-methylenepyrrolidin-1-yl)-N-((3-nitro-4-(((tetrahydro-2H-pyran-4-yl)methyl)amino)phenyl)sulfonyl)-2′,3′,4′,5′-tetrahydro-[1,1′-biphenyl]-4-carboxamide], the IC50 in the experiment with RS4;11 cells (setting [3]) is 118 nM; with Molt-4 cells (setting [2]), 1990 nM.

As to `O=C(NS(=O)(=O)c1ccc(NCC2CCOCC2)c([N+](=O)[O-])c1)c1ccc(-c2ccc(N3CCCC3c3ccccc3)nc2)cc1Oc1cnc2[nH]ccc2c1` (centres unmarked) [Example E1, 2-((1H-pyrrolo[2,3-b]pyridin-5-yl)oxy)-N-((3-nitro-4-(((tetrahydro-2H-pyran-4-yl)methyl)amino)phenyl)sulfonyl)-4-(6-(2-phenylpyrrolidin-1-yl)pyridin-3-yl)benzamide], the IC50 in the experiment with RS4;11 cells (setting [3]) is 1630 nM; in the experiment with Molt-4 cells (setting [2]) it was more than 10000 nM.

As for `O=C(NS(=O)(=O)c1ccc(NC[C@@H]2CCN(C3COC3)C2)c([N+](=O)[O-])c1)c1ccc(C2=CCC(N3CCCC3c3ccccc3C3CC3)CC2)cc1Oc1cnc2[nH]ccc2c1` (stereo partly drawn) [Example G39, 3-((1H-pyrrolo[2,3-b]pyridin-5-yl)oxy)-4′-(2-(2-cyclopropylphenyl)pyrrolidin-1-yl)-N-((3-nitro-4-((((S)-1-(oxetan-3-yl)pyrrolidin-3-yl)methyl)amino)phenyl)sulfonyl)-2′,3′,4′,5′-tetrahydro-[1,1′-biphenyl]-4-carboxamide], the figures for the IC50 in the experiment with RS4;11 cells (setting [3]) and in the experiment on Molt-4 cells (setting [2]) were 116 nM and 6260 nM, respectively.

For `O=C(NS(=O)(=O)c1ccc(NCC2CCOCC2)c([N+](=O)[O-])c1)c1ccc(C2=CCC(N3CCCC3c3ccc(Cl)cc3C3CC3)CC2)cc1Oc1cnc2[nH]ccc2c1` (centres unmarked) [Example C143, 3-((1H-pyrrolo[2,3-b]pyridin-5-yl)oxy)-4′-(2-(4-chloro-2-cyclopropylphenyl)pyrrolidin-1-yl)-N-((3-nitro-4-(((tetrahydro-2H-pyran-4-yl)methyl)amino)phenyl)sulfonyl)-2′,3′,4′,5′-tetrahydro-[1,1′-biphenyl]-4-carboxamide], the values for the IC50 in the experiment with RS4;11 cells (setting [3]) and in the experiment on Molt-4 cells (setting [2]) were 569 nM and 4990 nM, respectively.

`CC(C)N1CCN(C2CC3(CCN(c4ccc(C(=O)NS(=O)(=O)c5ccc(NCC6CCOCC6)c([N+](=O)[O-])c5)c(Oc5cnc6[nH]ccc6c5)c4)CC3)C2)C(c2ccccc2C2CC2)C1` (centres unmarked) [Example F92, 2-((1H-pyrrolo[2,3-b]pyridin-5-yl)oxy)-4-(2-(2-(2-cyclopropylphenyl)-4-isopropylpiperazin-1-yl)-7-azaspiro[3.5]nonan-7-yl)-N-((3-nitro-4-(((tetrahydro-2H-pyran-4-yl)methyl)amino)phenyl)sulfonyl)benzamide]: the IC50 in the experiment on RS4;11 cells (setting [1]) stood at 1.2 nM; in the experiment on RS4;11 cells (RS4-11, read-out: Celluclar activity (IC50, nM) RS 4, 11) it was 1.2 nM; in the experiment with Molt-4 cells (MOLT-4, read-out: Celluclar activity (IC50, nM) Molt-4), 1370 nM; with Molt-4 cells (setting [2]) it was 1370 nM.

Consider `CN(C)C1CCN(c2ccccc2C2CCCN2c2ccc(-c3ccc(C(=O)NS(=O)(=O)c4ccc(NCC5CCOCC5)c([N+](=O)[O-])c4)c(Oc4cnc5[nH]ccc5c4)c3)cc2)CC1` (centres unmarked) [Example A125, 3-((1H-pyrrolo[2,3-b]pyridin-5-yl)oxy)-4′-(2-(2-(4-(dimethylamino)piperidin-1-yl)phenyl)pyrrolidin-1-yl)-N-((3-nitro-4-(((tetrahydro-2H-pyran-4-yl)methyl)amino)phenyl)sulfonyl)-[1,1′-biphenyl]-4-carboxamide], for which the results for the IC50 with RS4;11 cells (setting [1]) and with Molt-4 cells (setting [2]) were 4.5 nM and 489 nM, respectively.

As to `CN(C)CCN(C)c1ccc(C2CC2)c(C2CCCN2C2CC=C(c3ccc(C(=O)NS(=O)(=O)c4ccc(NCC5CCOCC5)c([N+](=O)[O-])c4)c(Oc4cnc5[nH]ccc5c4)c3)CC2)c1` (centres unmarked) [Example C171, 3-((1H-pyrrolo[2,3-b]pyridin-5-yl)oxy)-4′-(2-(2-cyclopropyl-5-((2-(dimethylamino)ethyl)(methyl)amino)phenyl)pyrrolidin-1-yl)-N-((3-nitro-4-(((tetrahydro-2H-pyran-4-yl)methyl)amino)phenyl)sulfonyl)-2′,3′,4′,5′-tetrahydro-[1,1′-biphenyl]-4-carboxamide], the IC50 in the experiment with RS4;11 cells (setting [3]) was 492 nM; in the experiment on Molt-4 cells (setting [2]) it was more than 10000 nM.

Consider `CS(C)(=O)=NC1CCC(CNc2ccc(S(=O)(=O)NC(=O)c3ccc(N4CCC5(CC4)CC(N4CCC[C@H]4c4ccccc4C4CC4)C5)cc3Oc3cnc4[nH]ccc4c3)cc2[N+](=O)[O-])CC1` (single isomer, unassigned) [Example F97, 2-((1H-pyrrolo[2,3-b]pyridin-5-yl)oxy)-4-(2-((S)-2-(2-cyclopropylphenyl)pyrrolidin-1-yl)-7-azaspiro[3.5]nonan-7-yl)-N-((4-(((((1s,4s) or (1r,4r))-4-((dimethyl(oxo)-16-sulfaneylidene)amino)cyclohexyl)methyl)amino)-3-nitrophenyl)sulfonyl)benzamide], for which the IC50 in the experiment on RS4;11 cells (setting [1]) was 1 nM; in the experiment on Molt-4 cells (setting [2]), more than 10000 nM.
